# Results taken from PubChem BioAssay AID1476 (National Center for Advancing Translational Sciences (NCATS), 2009).
# Hit rate of the full screen: of about 200,000 compounds, about 4,500 (2.2%) were called active. The inconclusive results got no clear call from the source; some entries with a clear call stand among them for comparison. The call rests on the fitted dose curve; in most records, active means well fitted inhibition curve with a large enough effect; inconclusive means small, poorly fitted or top-dose-only effect, or effect the other way; inactive means flat fitted curve, though single readings scatter. Potencies beside an inconclusive call are fits to weak or partial responses and may not hold up.
# Target: Cruzipain (Trypanosoma cruzi) (UniProt P25779)
# Test: qHTS Assay for Promiscuous and Specific Inhibitors of Cruzain (without detergent); further: nearly all actives have a fitted effect of over 40% in size;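 on max response, negative = inhibition: plate controls were enzyme without inhibitor for no effect and buffer without enzyme for full effect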
# Details: purified cruzain, Z-FR-AMC fluorescence, no detergent
# Outline: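 Detergent-free condition (0.00005% Triton X-100) in acetate buffer pH 5.5 with DTT. 1.5 nM enzyme and compound were pre-mixed 15 min, then 2 uM Z-FR-AMC substrate added; reaction progress from fluorescence change between first and third reads (60 s).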
# Potency means the concentration at half of the fitted maximal effect; tags describe the fitted curve by direction and shape.
# Sequence of UniProt P25779 (P25779 whole entry, looked up): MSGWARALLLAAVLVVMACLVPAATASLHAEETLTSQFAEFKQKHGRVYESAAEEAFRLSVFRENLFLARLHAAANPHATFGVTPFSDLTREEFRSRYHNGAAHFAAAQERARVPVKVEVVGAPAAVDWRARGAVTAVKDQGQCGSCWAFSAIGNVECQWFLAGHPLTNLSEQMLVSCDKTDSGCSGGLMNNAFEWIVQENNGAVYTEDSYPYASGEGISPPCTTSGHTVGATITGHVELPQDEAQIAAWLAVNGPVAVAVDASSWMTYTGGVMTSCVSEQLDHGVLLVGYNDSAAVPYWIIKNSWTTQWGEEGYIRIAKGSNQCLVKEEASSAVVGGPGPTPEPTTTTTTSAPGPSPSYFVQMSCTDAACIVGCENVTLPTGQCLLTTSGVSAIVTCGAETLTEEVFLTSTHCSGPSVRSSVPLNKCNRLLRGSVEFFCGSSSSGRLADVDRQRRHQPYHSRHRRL
SMILES,Potency,"max response, negative = inhibition"
Cc1ccc(Nc2ncc(C(=O)N3CCN(c4ccc(F)cc4)CC3)c3ccccc23)cc1Cl,"inconclusive: 39.8 µM [inhibitor, single point]",
O=C(O)COc1ccccc1/C=C1\SC(=S)N(/N=C/c2ccccc2O)C1=O,"inconclusive: 6.31 µM [activator, single point]",
CN1/C(=C\C(=O)COC(=O)CN2C(=O)C3CC=CCC3C2=O)C(C)(C)c2ccccc21 (centres undefined),,inactive: 8.63%
COc1ccc(NC(=O)c2c(NCc3ccc(N(C)C)cc3)sc3c2CCC3)cc1,,inactive: -12.4%
O=C(O)c1cc(-c2ccc(-c3ccc(-c4cc(C(=O)O)c5cc(Cl)ccc5n4)cc3)cc2)nc2ccc(Cl)cc12,"inconclusive: 3.98 µM [activator, single point]",
CCOC(=O)C1=C(CNCc2ccc(C)cc2)NC(=O)NC1c1cc(C)ccc1C (centres undefined),"inconclusive: 39.8 µM [inhibitor, single point]",
Oc1ccccc1/C=N/n1cnn(Cc2ccccc2Cl)c1=S,"inconclusive: 39.8 µM [inhibitor, single point]",
O=C(Cn1nc(-c2ccccc2)c2ccccc2c1=O)Nc1ccc2c(c1)nc1n2CCOC1,"inconclusive: 31.6 µM [activator, single point]",
C=CCNC(=O)COC(=O)c1ccc(Cl)c(S(=O)(=O)N(Cc2ccccc2)c2ccccc2)c1,"inconclusive: 39.8 µM [activator, single point]",
NS(=O)(=O)c1ccc(N=Nc2nc3[nH]c(=O)[nH]c(=O)c3[nH]2)cc1,"inconclusive: 1.58 µM [activator, single point]",
Cc1cc(C)cc(NC(=O)c2ccc3c(c2)nnn3C2CCCC2)c1,,inactive: -7.07%
CCOC(=O)c1cccc(NC(=O)c2cc3c(=O)n(C)c4ccccc4c3n2C)c1,,inactive: 13.2%
O=C(/C=C/c1ccc(Cl)c([N+](=O)[O-])c1)Nc1cccc(NC(=O)c2ccco2)c1,"inconclusive: 39.8 µM [inhibitor, single point]",
O=C1C=C(Nc2nc(C(=O)O)cc(=O)[nH]2)c2ccccc2C1=O,,inactive: -2.5%
O=C(Oc1ccc(OC(=O)c2ccco2)c(S(=O)(=O)c2ccc(Br)cc2)c1)c1ccco1,active: 25.1 µM,
O=C(CSc1oc(-c2ccco2)nc1S(=O)(=O)c1ccc(Br)cc1)c1ccccc1,"inconclusive: 39.8 µM [inhibitor, single point]",
O=C(CS(=O)(=O)Cc1ccccc1)N1CCN(c2cccc(C(F)(F)F)c2)CC1,"inconclusive: 39.8 µM [activator, single point]",
Cc1ccccc1Nc1sc(C(=O)c2ccc(F)cc2)c(N)c1C(=O)NCCc1ccccc1,"inconclusive: 3.16 µM [inhibitor, full curve]",
CCOC(=O)C1CCCN(C(=O)c2sc3nc(-c4ccc(F)cc4)cn3c2C)C1 (centres undefined),"inconclusive: 31.6 µM [activator, single point]",
COc1ccc(C2=NC3(CCCCCC3)N(CC(=O)Nc3ccc(C)c(C)c3)C2=O)cc1,,inactive: -7.96%
CC(C)(C)NC(=O)Cc1ccc(S(=O)(=O)N2CCCC2)s1,,inactive: -3.99%
CCn1c(C)c(C)c2cc(C(=O)NCc3ccc(N(C)C)cc3)ccc21,"inconclusive: 25.1 µM [inhibitor, partial curve]",

SMILES,Potency,"max response, negative = inhibition"
COc1ccc(-c2cn[nH]c2-c2ccc(OCc3ccc([N+](=O)[O-])cc3)cc2O)cc1,"inconclusive: 39.8 µM [inhibitor, single point]",
O=C1C2C3C=CC(C4CC34)C2C(=O)N1/N=C/c1ccc([N+](=O)[O-])s1 (centres undefined),,inactive: -1.11%
CCN(CC)S(=O)(=O)c1cc(NC(=O)COC(=O)CCC(=O)c2ccc(F)cc2)ccc1C,"inconclusive: 39.8 µM [activator, single point]",
Cc1ccc(S(=O)(=O)N2CCOCC2)cc1NC(=O)COC(=O)CSc1ccc(Br)cc1C,"inconclusive: 39.8 µM [activator, single point]",
Cc1ccccc1-n1c(=O)c(C#N)cc2c(=O)n3ccccc3nc21,"inconclusive: 39.8 µM [inhibitor, single point]",
C1=CC2c3ccccc3NC(c3ccncc3)C2C1 (centres undefined),"inconclusive: 31.6 µM [activator, single point]",
COc1cccc(Nc2sc(C(=O)c3ccc4c(c3)OCO4)c(N)c2S(=O)(=O)c2ccccc2)c1,active: 7.94 µM,
CCC1=C(OC(=O)N(CC)CC)N2C(=O)OC(=NCC(=O)OC)[C@]2(C)[C@H]2C1=CC[C@H]1C(=O)N(CC(=O)OC)C(=O)[C@H]12,"inconclusive: 25.1 µM [activator, single point]",
CC(=O)NCCNc1nc2c(-c3cccc(C)c3)nnn2c2ccc(Cl)cc12,,inactive: 4.74%
CC(=O)Nc1sc(NC(=O)c2ccc(C)cc2)nc1-c1cccs1,"inconclusive: 31.6 µM [inhibitor, single point]",
O=C(COC(=O)CNC(=O)c1cccc([N+](=O)[O-])c1)Nc1nc2ccccc2s1,"inconclusive: 25.1 µM [inhibitor, single point]",
COc1ccc(CCNC(=O)CSc2nc(-c3ccco3)cc(C(F)(F)F)n2)cc1,"inconclusive: 39.8 µM [activator, single point]",
O=C(NC1CCCCC1)c1nn2c(C(F)(F)F)cc(-c3ccco3)nc2c1Br,"inconclusive: 39.8 µM [inhibitor, single point]",
Oc1ccc(Br)cc1/C=N/n1cnc2ccccc21,"inconclusive: 39.8 µM [inhibitor, single point]",
COc1ccc2nc(NCN3C(=O)c4ccccc4C3=O)sc2c1,,inactive: -4%
Cc1nc(-c2ccc(S(=O)(=O)N3CCN(c4cccc(Cl)c4)CC3)cc2)co1,,inactive: -12.6%
COc1cc(NC(=O)Cn2c(=O)n(CC(=O)NCCc3ccc(OC)c(OC)c3)c(=O)c3sccc32)cc(OC)c1,,inactive: 20.9%
Cc1ccc(CNC(=O)CSc2nc3ccccc3c3nc(C)nn23)cc1,"inconclusive: 15.8 µM [activator, partial curve]",
Cc1ccc(S(=O)(=O)N2CCN(c3ccc(C(=O)N4CCOCC4)cc3[N+](=O)[O-])CC2)cc1,"inconclusive: 31.6 µM [activator, single point]",
Cc1ccc(NC(=O)CN2c3ccccc3S(=O)(=O)c3ccccc32)cc1F,"inconclusive: 25.1 µM [inhibitor, single point]",
COc1ccccc1OCCCCn1c(C2CC(=O)N(c3ccccc3Cl)C2)nc2ccccc21 (centres undefined),"inconclusive: 25.1 µM [activator, single point]",
Cc1ccc(C2=NC(c3ccc(F)cc3)=Nc3ccc(C)cc3N2)cc1,active: 25.1 µM,

SMILES,Potency,"max response, negative = inhibition"
Cn1c(N/N=C/c2cccs2)nc2c1c(=O)n(Cc1ccccc1)c(=O)n2C,"inconclusive: 39.8 µM [activator, single point]",
CCOc1ccccc1-c1nn2c(Cc3ccccc3)nnc2s1,"inconclusive: 31.6 µM [activator, single point]",
Cc1ccc(S(=O)(=O)N2CCN(Cc3ccccc3)CC2)c(C)c1NS(C)(=O)=O,,inactive: 0.982%
COc1cccc(N2CC(O)Cn3c2nc2c3c(=O)n(CCCc3ccccc3)c(=O)n2C)c1 (centres undefined),"inconclusive: 25.1 µM [activator, single point]",
Cc1cc(C)c(NC(=O)C(C)Sc2nc3ccc(N4C(=O)c5ccccc5C4=O)cc3s2)c(C)c1 (centres undefined),active: 6.31 µM,
Cc1cccc(OCCCC(=O)Nc2ccc(S(N)(=O)=O)cc2)c1C,"inconclusive: 39.8 µM [inhibitor, single point]",
COc1ccccc1N1CCN(S(=O)(=O)c2c(C)sc3ncn(CC(=O)Nc4ccc(C(C)C)cc4)c(=O)c23)CC1,"inconclusive: 6.31 µM [activator, single point]",
Cc1ccc(CNc2nc3ccccc3n3nnnc23)cc1,active: 31.6 µM,
Cc1ccc(S(=O)(=O)c2cnc(SCC(=O)Nc3ccccc3C(F)(F)F)[nH]c2=O)cc1C,"inconclusive: 31.6 µM [activator, single point]",
CCN1CCc2nc(NC(=O)CC(c3ccccc3)c3ccccc3)sc2C1,active: 31.6 µM,
Cc1cc(C)cc(NC(=O)C2CCCN(c3cnccn3)C2)c1 (centres undefined),,inactive: 3.12%
c1cc2c3c(c1)c1c(n3CCNC2)CCCC1,,inactive: 5.69%
COc1ccc(-c2cc(C#N)nc(Oc3ccc(Cl)cc3)n2)cc1,active: 25.1 µM,
O=C(NCc1ccc(F)cc1)C1CCN(S(=O)(=O)c2ccc3c(c2)CCCN3C(=O)C2CCC2)CC1,,inactive: 16.8%
CCc1ccc2c(O)c3c(cc2c1C(=O)OC)C(=O)c1c(O)ccc(O)c1C3=O,,inactive: -4.46%
CCCSC1=C(C#N)C(c2cccs2)C(C(=O)Nc2ccccc2)=C(C)N1 (centres undefined),active: 25.1 µM,
COc1ccc(-c2cc(C(=O)Nc3cccc(C(C)=O)c3)no2)cc1OC,,inactive: -10.2%
CCOC(=O)c1sc(NC(=O)CSc2nc3c(c(=O)n2-c2ccc(C)cc2)SCC3)c(C(=O)OCC)c1C,active: 6.31 µM,
O=C(Oc1cccc(/C=N/Nc2nc(N3CCOCC3)nc(N3CCOCC3)n2)c1)c1ccco1,"inconclusive: 39.8 µM [activator, single point]",
COc1ccc(-c2[nH]ncc2/C=N/NC(=O)c2ccc(Br)cc2)c(OC)c1,"inconclusive: 39.8 µM [activator, single point]",
